Laboratory results from ChEMBL document CHEMBL5606458, “ASAP - ZIKV NS2B-NS3 protease fluorescence single point” (2024).
About 160 (5.9%) of roughly 2,700 compounds showed an effect of 50% or more. Some of the results follow.

Target: Nonstructural protein 3 (Zika virus) (UniProt A0A024AXB9)
[1] = PRVABC59, Concentration 50.0 uM, Number of replicates 1.0
[2] = PRVABC59, Concentration 15.0 uM, Number of replicates 1.0

Sequence of UniProt A0A024AXB9 (A0A024AXB9 as listed by the source): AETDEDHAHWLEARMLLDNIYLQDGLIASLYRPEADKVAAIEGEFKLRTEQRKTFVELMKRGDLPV

O=Cc1ccc(N2CCC(C(=O)N3CCC4(CC3)CNC(=O)C4)CC2)cc1
inhibition [1]: 25.4%

O=C(Nc1ccc(F)c(F)c1Br)c1cc(Cl)ccc1NS(=O)(=O)c1ccc(Oc2ccccc2Cl)cc1
inhibition [2]: 22.3%

O=Cc1ccc(N2CCC(C(=O)NCC(=O)Nc3ccc(F)c(F)c3)CC2)cc1
inhibition [1]: 22.6%

O=Cc1ccc(N2CCC(C(=O)Nc3cc(Br)ccc3F)CC2)cc1
inhibition [1]: 20.2%

O=Cc1ccc(N2CCC(C(=O)NCC3(c4ccccc4)CCCC3)CC2)cc1
inhibition [1]: -8.82%

CC(C)n1c(CNC(=O)C2CCN(c3ccc(C=O)cc3)CC2)nc2ccccc21
inhibition (PRVABC59, Concentration 10.0 uM, Number of replicates 1.0): 17.5%

c1ccc2c([C@H]3CCCN(Cc4n[nH]c5ccccc45)C3)c[nH]c2c1
inhibition (PRVABC59, Concentration 49.5 uM, Number of replicates 2.0, Standard deviation 3.6587058790697027 %): 14.8% | inhibition (PRVABC59, Concentration 99.01 uM, Number of replicates 2.0, Standard deviation 26.693125215040073 %): 4.19% | inhibition (PRVABC59, Concentration 198.0 uM, Number of replicates 2.0, Standard deviation 3.5149783821517926 %): 23.4%

Cc1cc(CO)c2cccc(NC(=O)Cc3c[nH]c4ccccc34)c2n1
inhibition (PRVABC59, Concentration 49.95 uM, Number of replicates 2.0, Standard deviation 1.957076435136205 %): 0.348% | inhibition (PRVABC59, Concentration 99.9 uM, Number of replicates 2.0, Standard deviation 1.2143902959611252 %): 15.2%

Cc1cnccc1NC(=O)c1ccc2c(c1)COCC2
inhibition (PRVABC59, Concentration 49.5 uM, Number of replicates 2.0, Standard deviation 2.69695726690351 %): -1.9% | inhibition (PRVABC59, Concentration 99.01 uM, Number of replicates 2.0, Standard deviation 3.0402064405563363 %): 0.025% | inhibition (PRVABC59, Concentration 198.0 uM, Number of replicates 2.0, Standard deviation 1.8497312779646569 %): 0.206%

O=C(NCc1ccc(-c2ncc[nH]2)cc1)[C@@]1(c2ccc(F)cc2)CCCNC1
inhibition (PRVABC59, Concentration 49.5 uM, Number of replicates 2.0, Standard deviation 2.3187650947227487 %): 1.31% | inhibition (PRVABC59, Concentration 99.01 uM, Number of replicates 2.0, Standard deviation 2.204769965646303 %): 2.13% | inhibition (PRVABC59, Concentration 198.0 uM, Number of replicates 2.0, Standard deviation 1.9171913551037998 %): 4.87%

Cc1nnccc1Cn1cc(C2CCNCC2)c(C)n1
inhibition (PRVABC59, Concentration 49.5 uM, Number of replicates 2.0, Standard deviation 2.7090336165782265 %): -2.75% | inhibition (PRVABC59, Concentration 99.01 uM, Number of replicates 2.0, Standard deviation 2.112474130988979 %): -1.31% | inhibition (PRVABC59, Concentration 198.0 uM, Number of replicates 2.0, Standard deviation 2.1104311573378225 %): -0.938%

c1ccc(-c2coc(CNCc3nnc4ccccn34)c2)cc1
inhibition (PRVABC59, Concentration 49.5 uM, Number of replicates 2.0, Standard deviation 1.1547683946800986 %): -0.032% | inhibition (PRVABC59, Concentration 99.01 uM, Number of replicates 2.0, Standard deviation 0.7824365600264931 %): -0.626% | inhibition (PRVABC59, Concentration 198.0 uM, Number of replicates 2.0, Standard deviation 0.5665918856495316 %): 1.91%

COc1ccccc1N1CCN(CCCNC(=O)c2cc(Cl)ccc2NS(=O)(=O)c2ccc(Oc3ccccc3Cl)cc2)CC1
inhibition [2]: 0.762%

O=C(c1nc2ccccc2[nH]1)N1CC[C@H](n2cc3ccccc3n2)C1
inhibition (PRVABC59, Concentration 49.5 uM, Number of replicates 2.0, Standard deviation 1.8149018809985271 %): 2.53% | inhibition (PRVABC59, Concentration 99.01 uM, Number of replicates 2.0, Standard deviation 1.0997073724638302 %): 4.57% | inhibition (PRVABC59, Concentration 198.0 uM, Number of replicates 2.0, Standard deviation 2.2147953100610436 %): 4.59%

Cc1cc(CO)c2cccc(Cc3cccc(NC(=O)c4cc(C(=O)O)[nH]n4)c3)c2n1
inhibition (PRVABC59, Concentration 49.95 uM, Number of replicates 2.0, Standard deviation 0.809256243461067 %): 3.27% | inhibition (PRVABC59, Concentration 99.9 uM, Number of replicates 2.0, Standard deviation 2.152927108194932 %): 7.39%

O=Cc1ccc(N2CCC(C(=O)N3CCN(c4ncccn4)CC3)CC2)cc1
inhibition [1]: 22.4%

CNC(=O)c1cc(Cl)ccc1NS(=O)(=O)c1ccc2[nH]cnc2c1
inhibition (PRVABC59, Concentration 49.5 uM, Number of replicates 2.0, Standard deviation 2.3657282322003765 %): -9.41%

CS(=O)(=O)C1CCN(C(=O)c2cc(Cl)ccc2NS(=O)(=O)c2ccc(Oc3ccccc3Cl)cc2)CC1
inhibition [2]: -1.24%

C=CCN(Cc1cccc(OC)c1)C(=O)c1cc(Cl)ccc1NS(=O)(=O)c1ccc(Oc2ccccc2Cl)cc1
inhibition [2]: 28.9%

O=C(CNC(=O)c1cc(Cl)ccc1NS(=O)(=O)c1ccc(Oc2ccccc2Cl)cc1)Nc1ccc(F)c(F)c1
inhibition [2]: 48.8%
